# Test results taken from FireProtDB.
# Values joined by “and” are separate entries in the source; they are usually repeats but may differ in a detail not shown here. Equal values may be shown once.
# [1] = Homo sapiens, pH 7.2, 25 °C, GdnHCl, CD, Phosphate 100 mM
# [2] = Homo sapiens, pH 7.2, 25 °C, GdnHCl, Fluorescence, Phosphate 100 mM
# [3] = Homo sapiens, pH 8, 25 °C, GdnHCl, Fluorescence, Sodium phosphate 50mM, transition: 2, reversible: yes
# [4] = Homo sapiens, pH 7.5, 23 °C, GdnHCl, CD, HEPES 20 mM, reversible: Unknown
# [5] = Homo sapiens, pH 7.4, 25 °C, GdnHCl, CD, potassium phosphate 10 mM, KCl 50 mM, reversible: Unknown
# [6] = Homo sapiens, pH 6.5, 25 °C, GdnHCl, CD, MES 0.01 M, NaCl 0.09 M, reversible: yes
# [7] = Homo sapiens, pH 6.5, 25 °C, GdnHCl, Fluorescence, MES 10 mM, NaCl 90 mM, reversible: no
# [8] = Homo sapiens, pH 7.5, 25 °C, Urea, CD, Sodium phosphate 50 mM, NaCl 0.1 M, reversible: yes
# [9] = Escherichia coli (strain K12), pH 7, 25 °C, GdnHCl, CD, Potassium phosphate 10 mM, reversible: Unknown
# [10] = Escherichia coli (strain K12), pH 7, 25 °C, GdnHCl, CD, sodium phosphate 30 mM, KCl 0.1 M, reversible: Unknown
# [11] = Escherichia coli (strain K12), pH 7, 25 °C, GdnHCl, Fluorescence, sodium phosphate 30 mM, KCl 0.1 M, reversible: Unknown
# [12] = Escherichia coli (strain K12), pH 7, 25 °C, GdnHCl, CD, phosphate 50 mM, reversible: yes
# [13] = Escherichia coli (strain K12), pH 7, 25 °C, Urea, CD, phosphate 50 mM, reversible: yes
# [14] = Escherichia coli (strain K12), pH 7.4, Thermal, DSC, CGH-10, reversible: no
# [15] = Escherichia coli (strain K12), pH 5.7, 20 °C, GdnHCl, CD, Potassium phosphate 10 mM, reversible: yes
# [16] = Escherichia coli (strain K12), pH 8.7, 25 °C, Urea, CD, Tris 0.375 M, reversible: Unknown
# [17] = Homo sapiens, pH 8, 25 °C, Urea, Fluorescence, Tris-acetate 50 mM, reversible: yes
substance,measurement,setting,value
Apolipoprotein A-I wild type (sequence left out),unfolding free energy,"Homo sapiens, pH 7.8, 25 °C, GdnHCl, CD, phosphate 20 mM, NaCl 10 micro M, reversible: yes",2.5 kcal/mol
Cellular retinoic acid-binding protein 1 wild type (chain not printed),Tm,"Bos taurus, pH 7, Thermal, CD, potassium phosphate 10 mM, reversible: Unknown",54 °C
Fibroblast growth factor 1 wild type (no sequence given),denaturant m value,[1],3.6 kcal/mol/M
same,denaturant midpoint (higher = more stable),[1],1.8 M
same,unfolding free energy,[1],6.5 kcal/mol
same,denaturant m value,[2],4.7 kcal/mol/M
same,denaturant midpoint (higher = more stable),[2],0.9 M
same,unfolding free energy,[2],4.5 kcal/mol
Fibroblast growth factor 1 wild type (sequence left out),denaturant m value,[3],4.97 kcal/mol/M
same,denaturant midpoint (higher = more stable),[3],1.23 M
same,unfolding free energy,[3],6.11 kcal/mol
Insulin wild type (chain not printed),unfolding free energy,[4],4.5 kcal/mol
Insulin wild type (letters omitted),denaturant m value,[5],0.84 kcal/mol/M
same,denaturant midpoint (higher = more stable),[5],5.3 M
same,unfolding free energy,[5],4.4 kcal/mol
same,denaturant midpoint (higher = more stable),[4],5 M
Insulin wild type (no sequence given),Tm,"Homo sapiens, pH 1.8, Thermal, DSC, HCl, reversible: no",60 °C
same,unfolding free energy,"Homo sapiens, pH 2, 23 °C, GdnHCl, CD, Tris/MES/acetate 50 mM/25 mM/25 mM/, reversible: Unknown",5.81 kcal/mol
Insulin wild type (sequence left out),unfolding free energy,"Homo sapiens, pH 7.5, 23 °C, GdnHCl, CD, HEPES 20 mM, reversible: yes",4.5 kcal/mol
Interleukin-1 beta wild type (chain not printed),denaturant midpoint (higher = more stable),[6],1.26 M
same,unfolding free energy,[6],7.03 kcal/mol
Interleukin-1 beta wild type (letters omitted),denaturant midpoint (higher = more stable),[7],1.35 M
same,unfolding free energy,[7],9.1 kcal/mol
Interleukin-6 wild type (no sequence given),denaturant midpoint (higher = more stable),[8],5.5 M
same,unfolding free energy,[8],5 kcal/mol
Interleukin-6 wild type (sequence left out),unfolding free energy,"Homo sapiens, pH 8.6, 25 °C, GdnHCl, CD, Tris-HCl 0.1 M, reversible: yes",4.59 kcal/mol
Small ubiquitin-related modifier 2 wild type (sequence left out),Tm,"Homo sapiens, pH 7, Thermal, CD, Phosphate 50 mM, transition: 2",71.9 °C and 70.9 °C
same,Tm,"Homo sapiens, pH 7, Thermal, Fluorescence, Phosphate 50 mM, transition: 2",73.1 °C and 72.5 °C
Somatotropin wild type (no sequence given),Tm,"Homo sapiens, pH 5.5, Thermal, CD, Sodium phosphate 50 mM, reversible: Unknown",82 °C
Thioredoxin 1 wild type (chain not printed),denaturant m value,[9],3.2 kcal/mol/M
same,denaturant midpoint (higher = more stable),[9],2.5 M
same,unfolding free energy,[9],7.9 kcal/mol
same,denaturant midpoint (higher = more stable),[10],2.5 M
same,unfolding free energy,[10],9.6 kcal/mol
same,denaturant midpoint (higher = more stable),[11],2.5 M
same,unfolding free energy,[11],9.6 kcal/mol
Thioredoxin 1 wild type (letters omitted),denaturant midpoint (higher = more stable),[12],2.6 M
same,unfolding free energy,[12],8.6 kcal/mol
same,denaturant midpoint (higher = more stable),[13],6.7 M
same,unfolding free energy,[13],8.7 kcal/mol
same,Tm,"Escherichia coli (strain K12), pH 7, Thermal, CD, phosphate 50 mM, reversible: yes",82 °C
Thioredoxin 1 wild type (no sequence given),unfolding free energy,"Escherichia coli (strain K12), pH 7.4, 25 °C, GdnHCl, DSC, CGH-10, reversible: no",8.9 kcal/mol
same,Tm,[14],87.3 °C
same,unfolding enthalpy (calorimetric),[14],112 kcal/mol
Thioredoxin 1 wild type (sequence left out),denaturant m value,[15],3.7 kcal/mol/M
same,denaturant midpoint (higher = more stable),[15],2.61 M
same,unfolding free energy,[15],9.5 kcal/mol
same,unfolding free energy,"Escherichia coli (strain K12), pH 8.7, 23 °C, Urea, Absorbance, Tris 0.1 M, KCl 0.2 M, reversible: yes",6.1 kcal/mol and 9.7 kcal/mol
Thioredoxin 1 wild type (sequence not shown),unfolding free energy,"Escherichia coli (strain K12), pH 7, 25 °C, GdnHCl, CD, Potassium phosphate 50 mM, reversible: Unknown",8.9 kcal/mol
same,unfolding free energy,"Escherichia coli (strain K12), pH 8.7, 23 °C, GdnHCl, CD, Tris-HCl 0.1 M, KCl 0.2 M, reversible: yes",5 kcal/mol and 8.1 kcal/mol
same,denaturant midpoint (higher = more stable),[16],7.4 M and 4.4 M
same,unfolding free energy,[16],10 kcal/mol and 6.5 kcal/mol
Triosephosphate isomerase wild type (sequence left out),denaturant m value,[17],1.72 kcal/mol/M
same,unfolding free energy,[17],19.3 kcal/mol
U1 small nuclear ribonucleoprotein A wild type (chain not printed),unfolding free energy,"Homo sapiens, pH 5.5, 25 °C, Urea, CD, sodium acetate 5 mM, reversible: Yes",6 kcal/mol
